# Measured values published in the supplement of paper PMC8728848.
# Some of the results follow.
# B1: FliC (Pseudomonas aeruginosa), P72151 (protein)
# chain: MALTVNTNIASLNTQRNLNASSNDLNTSLQRLTTGYRINSAKDDAAGLQISNRLSNQISGLNVATRNANDGISLAQTAEGALQQSTNILQRIRDLALQSANGSNSDADRAALQKEVAAQQAELTRISDTTTFGGRKLLDGSFGTTSFQVGSNAYETIDISLQNASASAIGSYQVGSNGAGTVASVAGTATASGIASGTVNLVGGGQVKNIAIAAGDSAKAIAEKMDGAIPNLSARARTVFTADVSGVTGGSLNFDVTVGSNTVSLAGVTSTQDLADQLNSNSSKLGITASINDKGVLTITSATGENVKFGAQTGTATAGQVAVKVQGSDGKFEAAAKNVVAAGTAATTTIVTGYVQLNSPTAYSVSGTGTQASQVFGNASAAQKSSVASVDISTADGAQNAIAVVDNALAAIDAQRADLGAVQNRFKNTIDNLTNISENATNARSRIKDTDFAAETAALSKNQVLQQAGTAILAQANQLPQAVLSLLR
# Assays:
# Test in all cases: glycan array binding signal (z-score within array); higher = stronger binding
# Details in all cases: glycan notation: IUPAC condensed, linker removed
# Fuc(a1-3)GlcNAc = target: Fuc(a1-3)GlcNAc
# How it was run: (§1)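 Arrays were curated from the Consortium for Functional Glycomics database, 3228 in total, and kept only where the protein sequence was available. Binding is expressed as a within-array Z-score. This score was averaged across arrays of the same protein sequence at different concentrations or buffers and across linkers, and negative values can be read as non-binding.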
# [1] = target: Fuc(a1-3)[Gal(b1-4)]Glc6S
# How it was run: as §1
# [2] = target: Fuc(a1-3)[Gal(b1-4)]GlcNAc
# How it was run: as §1
# [3] = target: Fuc(a1-3)[Gal(b1-4)]GlcNAc(b1-2)Man
# How it was run: as §1
# [4] = target: Fuc(a1-3)[Gal(b1-4)]GlcNAc(b1-2)Man(a1-3)[Fuc(a1-3)[Gal(b1-4)]GlcNAc(b1-2)Man(a1-6)]Man(b1-4)GlcNAc(b1-4)GlcNAc
# How it was run: as §1
# [5] = target: Fuc(a1-3)[Gal(b1-4)]GlcNAc(b1-2)Man(a1-3)[Fuc(a1-3)[Gal(b1-4)]GlcNAc(b1-2)Man(a1-6)]Man(b1-4)GlcNAc(b1-4)[Fuc(a1-6)]GlcNAc
# How it was run: as §1
# [6] = target: Fuc(a1-3)[Gal(b1-4)]GlcNAc(b1-3)Gal(b1-3)[Fuc(a1-4)]GlcNAc
# How it was run: as §1
# [7] = target: Fuc(a1-3)[Gal(b1-4)]GlcNAc(b1-3)GalNAc
# How it was run: as §1
# [8] = target: Fuc(a1-3)[Gal(b1-4)]GlcNAc(b1-4)Gal(b1-4)[Fuc(a1-3)]GlcNAc
# How it was run: as §1
# [9] = target: Fuc(a1-3)[Gal(b1-4)]GlcNAc(b1-4)Gal(b1-4)[Fuc(a1-3)]GlcNAc(b1-4)Gal(b1-4)[Fuc(a1-3)]GlcNAc
# How it was run: as §1
# [10] = target: Fuc(a1-3)[Gal(b1-4)]GlcNAc(b1-6)GalNAc
# How it was run: as §1
# [11] = target: Fuc(a1-3)[Gal(b1-4)]GlcNAc(b1-6)[Gal(b1-3)GlcNAc(b1-3)]Gal(b1-4)Glc
# How it was run: as §1
# [12] = target: Fuc(a1-3)[Gal(b1-4)]GlcNAc6S
# How it was run: as §1
# [13] = target: Fuc(a1-3)[Gal3S(b1-4)]Glc
# How it was run: as §1
# [14] = target: Fuc(a1-3)[Gal3S(b1-4)]GlcNAc
# How it was run: as §1
# [15] = target: Fuc(a1-3)[Gal3S(b1-4)]GlcNAc6S
# How it was run: as §1
# [16] = target: Fuc(a1-3)[GalNAc(b1-4)]GlcNAc
# How it was run: as §1
# [17] = target: Fuc(a1-3)[GalNAc(b1-4)]GlcNAc6S
# How it was run: as §1
# Fuc(a1-4)GlcNAc = target: Fuc(a1-4)GlcNAc
# How it was run: as §1
# Fuc(b1-3)GlcNAc = target: Fuc(b1-3)GlcNAc
# How it was run: as §1
# Gal(a1-2)Gal = target: Gal(a1-2)Gal
# How it was run: as §1
# Gal(a1-3)Gal = target: Gal(a1-3)Gal
# How it was run: as §1
# Gal(a1-3)Gal(b1-3)GlcNAc = target: Gal(a1-3)Gal(b1-3)GlcNAc
# How it was run: as §1
# [18] = target: Gal(a1-3)Gal(b1-3)GlcNAc(b1-2)Man
# How it was run: as §1
# [19] = target: Gal(a1-3)Gal(b1-3)GlcNAc(b1-2)Man(a1-3)[Gal(a1-3)Gal(b1-3)GlcNAc(b1-2)Man(a1-6)]Man(b1-4)GlcNAc(b1-4)GlcNAc
# How it was run: as §1
# [20] = target: Gal(a1-3)Gal(b1-3)GlcNAc(b1-3)GalNAc
# How it was run: as §1
# [21] = target: Gal(a1-3)Gal(b1-3)GlcNAc(b1-6)GalNAc
# How it was run: as §1
# [22] = target: Gal(a1-3)Gal(b1-3)[Fuc(a1-4)]GlcNAc(b1-2)Man(a1-3)[Gal(a1-3)Gal(b1-3)[Fuc(a1-4)]GlcNAc(b1-2)Man(a1-6)]Man(b1-4)GlcNAc(b1-4)GlcNAc
# How it was run: as §1
# Gal(a1-3)Gal(b1-4)Glc = target: Gal(a1-3)Gal(b1-4)Glc
# How it was run: as §1
# Gal(a1-3)Gal(b1-4)GlcNAc = target: Gal(a1-3)Gal(b1-4)GlcNAc
# How it was run: as §1
binder,measurement,setting,value
B1,glycan array binding signal (z-score),Fuc(a1-3)GlcNAc,-0.077
same,glycan array binding signal (z-score),[1],-0.187
same,glycan array binding signal (z-score),[2],0.03
same,glycan array binding signal (z-score),[3],-0.146
same,glycan array binding signal (z-score),[4],-0.081
same,glycan array binding signal (z-score),[5],-0.224
same,glycan array binding signal (z-score),[6],-0.113
same,glycan array binding signal (z-score),[7],0.178
same,glycan array binding signal (z-score),[8],0.099
same,glycan array binding signal (z-score),[9],-0.169
same,glycan array binding signal (z-score),[10],-0.206
same,glycan array binding signal (z-score),[11],-0.153
same,glycan array binding signal (z-score),[12],-0.157
same,glycan array binding signal (z-score),[13],-0.196
same,glycan array binding signal (z-score),[14],-0.011
same,glycan array binding signal (z-score),[15],-0.147
same,glycan array binding signal (z-score),[16],0.089
same,glycan array binding signal (z-score),[17],-0.216
same,glycan array binding signal (z-score),Fuc(a1-4)GlcNAc,-0.226
same,glycan array binding signal (z-score),Fuc(b1-3)GlcNAc,-0.086
same,glycan array binding signal (z-score),Gal(a1-2)Gal,-0.009
same,glycan array binding signal (z-score),Gal(a1-3)Gal,-0.029
same,glycan array binding signal (z-score),Gal(a1-3)Gal(b1-3)GlcNAc,0.361
same,glycan array binding signal (z-score),[18],-0.177
same,glycan array binding signal (z-score),[19],-0.162
same,glycan array binding signal (z-score),[20],-0.143
same,glycan array binding signal (z-score),[21],0.888
same,glycan array binding signal (z-score),[22],-0.222
same,glycan array binding signal (z-score),Gal(a1-3)Gal(b1-4)Glc,-0.212
same,glycan array binding signal (z-score),Gal(a1-3)Gal(b1-4)GlcNAc,0.98
